Laboratory results published in PubChem BioAssay AID588342 (National Center for Advancing Translational Sciences (NCATS), 2011).
The campaign covered roughly 360,000 compounds. About 25,000 (6.9%) were called active. Inconclusive means that the source gave no clear call. Such entries were picked first, then a sample of the others. Calls come from the whole dose curve; as a rule, active = well fitted inhibition curve with a large enough effect; inconclusive = small, poorly fitted or top-dose-only effect; inactive = flat fitted curve, though single readings scatter. Where the call is inconclusive, the potency comes from a doubtful curve fit.

Each compound was assayed against Luciferin 4-monooxygenase (Photinus pyralis) (UniProt P08659) (assay: qHTS profiling assay for firefly luciferase inhibitor/activator using purifed enzyme and Km concentrations of substrates (counterscreen for miR-21 project)). Conditions: purified FLuc, luminescence inhibition; series mostly up to 57.5 µM.
Sequence of UniProt P08659 (P08659 whole entry, looked up): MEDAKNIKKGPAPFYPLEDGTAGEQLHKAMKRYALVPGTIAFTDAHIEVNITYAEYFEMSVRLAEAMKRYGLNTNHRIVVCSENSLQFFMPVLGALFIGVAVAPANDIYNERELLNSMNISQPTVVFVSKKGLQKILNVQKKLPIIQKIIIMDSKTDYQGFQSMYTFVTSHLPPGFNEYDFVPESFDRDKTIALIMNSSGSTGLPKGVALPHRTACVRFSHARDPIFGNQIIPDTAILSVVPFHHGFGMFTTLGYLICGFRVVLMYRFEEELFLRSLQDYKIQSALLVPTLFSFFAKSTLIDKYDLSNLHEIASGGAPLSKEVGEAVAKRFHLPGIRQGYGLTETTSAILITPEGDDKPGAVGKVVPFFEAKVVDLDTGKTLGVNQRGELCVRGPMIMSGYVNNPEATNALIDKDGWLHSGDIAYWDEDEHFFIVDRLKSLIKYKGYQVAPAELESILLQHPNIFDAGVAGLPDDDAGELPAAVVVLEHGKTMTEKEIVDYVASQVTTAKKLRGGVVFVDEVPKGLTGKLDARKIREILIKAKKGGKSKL
In short: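 Purified P. pyralis luciferase, 10 nM final, with Km-level 10 uM D-luciferin and 10 uM ATP in 50 mM Tris acetate pH 7.5, 10 mM Mg acetate, 0.01% Tween-20, 0.05% BSA; 6-point qHTS titration about 60 µM downward; luminescence read.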
Note: nearly all actives have a fitted effect of over 55% in size.
Potency is the fitted concentration of half-maximal effect; tags give direction and shape of the fitted curve.

Structure (SMILES)	Potency
CN(C)c1ccc(/C=N/NC2=NS(=O)(=O)c3ccccc32)cc1	inconclusive: 26.9 µM [inhibitor, single point]
CCCn1cnc2cc(NC(=O)c3cc(OC)c(OC)c(OC)c3)ccc21	inconclusive: 30.1 µM [inhibitor, partial curve, poor fit]
COc1cccc(Oc2ccc(N)cc2)c1	inconclusive: 21.3 µM [inhibitor, partial curve]
CC(C)C(NS(=O)(=O)c1c(Cl)cccc1Cl)C(=O)OCC(=O)c1c[nH]c2ccccc12 (stereo not given)	inconclusive: 37.9 µM [inhibitor, partial curve, poor fit]
CCCCNC(=O)CSc1nc2ccccc2c(=O)n1CC1COc2ccccc2O1 (stereo not given)	inactive
O=C(Nc1cccc(Br)c1)N1CCN2CCCCC2C1 (stereo not given)	inactive
CC(C)(CCC(=S)N1CCOCC1)C1CCCCC1	inconclusive: 30.1 µM [inhibitor, single point]
Cc1cccc(NC(=O)/C(C#N)=C/c2ccco2)c1	inconclusive: 8.49 µM [inhibitor, partial curve]
Cc1ccc(-n2nc3c(=O)n(CCCC(=O)NCc4cccc(F)c4)nc(C)c3c2C)cc1	inconclusive: 37.9 µM [inhibitor, partial curve, poor fit]
COc1ccc(/[N+]([O-])=C/c2ccco2)cc1	inconclusive: 12.6 µM [inhibitor, partial curve, poor fit]
CCOc1ccc(-n2c(C)nc3cc(C(=O)NC4CCCC4)ccc32)cc1	inactive
O=C(OCC#CCSc1nnc(-c2cccc3ccccc23)o1)c1cc2ccccc2o1	inactive
Cc1cc2n(n1)C(c1ccc3c(c1)OCO3)Nc1ccccc1-2 (stereo not given)	inconclusive: 37.9 µM [inhibitor, single point]
N#C/C(=C\c1ccc(OCc2ccc(Cl)cc2Cl)cc1)c1nc2ccccc2[nH]1	inactive
O=C(Nc1ccc(N2C(=O)C3C4C=CC(C4)C3C2=O)cc1)Nc1nncs1 (stereo not given)	inconclusive: 23.9 µM [inhibitor, single point]
O=c1c2ccccc2nnn1CSc1nnnn1-c1ccccc1	inconclusive: 16.9 µM [inhibitor, partial curve]
COc1ccc(Cl)cc1S(=O)(=O)Nc1ncn[nH]1	inactive
CCOc1ccc(NC(=O)CCc2c(C)nc3cc(-c4ccccc4OC)nn3c2C)cc1	inactive
CCN(CC)S(=O)(=O)c1cccc(NN=c2c(=O)c3ccccc3c2=O)c1	inactive
N#CC1=C(N)Oc2c(ccc3ccccc23)C1c1ccsc1 (stereo not given)	inconclusive: 26.9 µM [inhibitor, partial curve, poor fit]
CCC(=O)NC(=S)Nc1ccc(NC(=O)c2ccco2)cc1	inconclusive: 26.9 µM [inhibitor, partial curve, poor fit]
O=C(CNc1cccc([N+](=O)[O-])c1)N1CCN(S(=O)(=O)c2ccc(Cl)cc2)CC1	inactive
c1csc(CSc2nnc3sc4ccccc4n23)c1	active: 16.9 µM
CC(C)(C)C1CCc2c(sc3nc(SCC(N)=O)nc(N)c23)C1 (stereo not given)	active: 4.78 µM
CCCN1C(=O)c2cc(C(=O)NC3CCCCCC3)ccc2C1O (stereo not given)	active: 13.5 µM

Structure (SMILES)	Potency
Cc1ccnn1CC(=O)N/N=C/c1cccs1	inactive
COc1cccc(-c2cc3nc4c(c(N5CCC6(CC5)OCCO6)n3n2)CCCC4)c1	inconclusive: 42.6 µM [inhibitor, partial curve, poor fit]
CCC1CCCCN1C(=S)Nc1ccc(S(=O)(=O)Nc2ncccn2)cc1 (stereo not given)	inactive
CCC1CCCCN1C(=O)c1c[nH]c2ccc(S(=O)(=O)Nc3cccc(OC)c3)cc2c1=O (stereo not given)	inconclusive: 10.7 µM [inhibitor, partial curve]
Cc1cc(C)cc(-n2ccn(CC(=O)c3ccc(F)cc3)c(=O)c2=O)c1	inactive
O=S(=O)(NCC(c1ccc2c(c1)OCO2)N1CCN(c2ccccc2)CC1)c1ccccc1 (stereo not given)	inactive
CCCCn1c(N)c(N(CCOC)C(=O)c2cnc(C)cn2)c(=O)[nH]c1=O	inactive
O=C(COc1ccccc1)Nc1ccc(Cl)cc1Cl	active: 6.01 µM
CCOc1ccccc1NC1=C(Cl)C(=O)N(c2ccc(OC)cc2)C1=O	inactive
CC1(C)Cc2c(C#N)c(NCCN3CCOCC3)nc(-c3ccco3)c2CO1	inactive
CCCCC(=O)N1CCc2cc(OC)c(OC)cc2C1COc1ccc(C(=O)OCC)cc1 (stereo not given)	inactive
CCOC(=O)C1=C(CC)Nc2ccccc2N=C1NC(=O)Nc1ccc(Cl)c(Cl)c1	inconclusive: 30.1 µM [inhibitor, single point]
COc1ccc2c(c1OC)C(=O)N(c1cccc(C)c1)C2=O	inconclusive: 26.9 µM [inhibitor, single point]
COCCCn1c(=N)c(C(=O)NC2CCCC2)cc2c(=O)n3cccc(C)c3nc21	inactive
CCCCNC(=O)CSc1nc2ccsc2c(=O)n1C1CCN(C(=O)OCC)CC1	inactive
Cc1cc(C)n(-c2ccc(C(=O)C(C#N)c3nc4ccccc4n3C)cc2)n1 (stereo not given)	inconclusive: 12 µM [inhibitor, partial curve, poor fit]
Nc1scc(-c2ccncc2)c1Cl	inconclusive: 30.1 µM [inhibitor, single point]
C=CCN(C(=O)CNC(=O)c1ccco1)C(C(=O)NC1CCCC1)c1ccc(OC)cc1 (stereo not given)	inactive
CCN(C(C)=O)c1nnc(CSc2nc3ccccc3s2)s1	inconclusive: 26.9 µM [inhibitor, partial curve]
Cc1ccccc1-c1nnc(CN2CCC(C)CC2)o1	inconclusive: 37.9 µM [inhibitor, partial curve, poor fit]
CC1CCc2c(sc(NC(=S)NC(=O)c3ccccc3)c2C#N)C1 (stereo not given)	inconclusive: 10.7 µM [inhibitor, partial curve]
Cc1nc2ccc(NC(=O)c3nn(C(C)C)c(=O)c4ccccc34)cc2s1	inconclusive: 12 µM [inhibitor, partial curve]
CC(C)C(=O)Nc1nc2ccc(S(C)(=O)=O)cc2s1	inconclusive: 30.1 µM [inhibitor, partial curve, poor fit]
CC(Oc1ccc(Cl)cc1)C(=O)Nc1cccc(S(=O)(=O)N2CCOCC2)c1 (stereo not given)	inactive
O=c1oc(Nc2ccc(F)cc2)nc2ccccc12	active: 13.5 µM

Structure (SMILES)	Potency
COc1ccccc1/C=C/C=N/n1c(-c2n[nH]c3c2CCC3)n[nH]c1=S	inconclusive: 15.1 µM [inhibitor, partial curve]
O=C(O)c1ccc(NC(=O)c2cccc(NC(=O)c3cccs3)c2)cc1	inconclusive: 2.69 µM [inhibitor, partial curve]
COc1ccccc1N(CC(=O)N1CCOCC1)S(C)(=O)=O	inactive
c1ccc(OCCOCCSc2ncccn2)cc1	inconclusive: 30.1 µM [inhibitor, partial curve, poor fit]
Cc1ccc(OCc2cc(C(=O)N3CCN(c4ccccc4)CC3)no2)cc1C	active: 6.01 µM
CCOc1ccc(C(=O)Nc2ccc3oc(-c4ccc(C)cc4C)nc3c2)cc1Br	inactive
CCOC(=O)c1c(-c2ccccc2)csc1N1C(=O)Nc2ccccc2N1O	inconclusive: 13.5 µM [inhibitor, partial curve]
CC1CCN(C(=S)Nc2ccc(F)cc2)CC1	inconclusive: 37.9 µM [inhibitor, partial curve, poor fit]
CCCC(=O)Nc1ccc(NC(=O)c2ccccc2)nc1	active: 4.78 µM
Cc1ccc(C(=O)O)cc1NC(=O)c1nsc2ccccc12	inconclusive: 23.9 µM [inhibitor, partial curve]
Cc1c(/C(O)=C2\C(=O)C(=O)N(CCCN(C)C)C2c2ccccc2)cnn1-c1ccccc1 (stereo not given)	inconclusive: 16.9 µM [inhibitor, partial curve]
COc1cc2c(cc1OC)-c1cc(Nc3cccc(F)c3)nc(=O)n1CC2	inconclusive: 23.9 µM [inhibitor, partial curve, poor fit]
COC(=O)c1cn(NC(=O)COc2ccc(Cl)cc2)c(=O)c2ccccc12	inconclusive: 7.57 µM [inhibitor, full curve]
COc1ccc(-c2csc(NC(=O)c3ccco3)n2)cc1	active: 9.53 µM
COc1ccc(-c2noc(CCC(=O)Nc3ccc(C)c(C)c3)n2)cc1	inconclusive: 10.7 µM [inhibitor, partial curve, poor fit]
COC(=O)c1sc(NC(=S)NC(=O)c2ccccc2Cl)nc1C	active: 6.75 µM
c1ccc(CCc2nc(-c3ccncc3)no2)cc1	inconclusive: 30.1 µM [inhibitor, single point]
CCN(Cc1ccncc1)C(=O)c1cccs1	inconclusive: 23.9 µM [inhibitor, partial curve, poor fit]
Cc1ccc(F)cc1NC(=O)CSc1nc(-c2cccs2)cc(C(F)(F)F)n1	inactive
COCCNC(=O)COc1ccccc1C	inactive
CC(=O)c1cc(F)ccc1OCC(=O)N1CCCc2ccccc21	inconclusive: 26.9 µM [inhibitor, single point]
CC(=O)N1CCN(CCN(CC2C(C)C=C(C)CC2C)C(C)=O)CC1 (stereo not given)	inactive
COc1ccc(NC(=O)c2oc3ccccc3c2NC(=O)c2cc3ccccc3o2)c(OC)c1	inconclusive: 26.9 µM [inhibitor, partial curve]
COc1cccc(Nc2nc(-c3sc(NC(=O)c4ccccc4)nc3C)cs2)c1	active: 19 µM
Oc1ccccc1/C=N/Nc1nccnc1Cl	active: 16.9 µM
